Data: the supplement of paper PMC12217912
Some of the results follow. Sequences were assembled here from the parent chain. Inactive controls read about 0.05.

B1: TEV protease; numbered along this chain (parent)
chain: MGESLFKGPRDYNPISSSICHLTNESDGHTTSLYGIGFGPFIITNKHLFRRNNGTLVVQSLHGVFKVKDTTTLQQHLVDGRDMIIIRMPKDFPPFPQKLKFREPQREERICLVTTNFQTKSMSSMVSDTSCTFPSGDGIFWKHWIQTKDGQCGSPLVSTRDGFIVGIHSASNFTNTNNYFTSVPKNFMELLTNQEAQQWVSGWRLNADSVLWGGHKVFMVKPEEPFQPVKEATQL

Variants of: B1
Test: raw area under fraction-flipped curve 0-4 h after induction (AUC4h, not background-subtracted), DNA-recorder readout of cleavage of the substrate (dimensionless); higher = more cleavage of the substrate by the protease variant
Settings: temperature: 34 °C; time window: 0-4 h after rhamnose induction
Experimental: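 In vivo DNA recorder in E. coli TOP10(DE3) ΔrhaA at 34 °C. Each TEVp single-site mutant (parent TEVp 0) is paired with a single-site variant of the 7-mer TEVs (canonical ENLYFQ|S). The substrate sits between flexible linkers in a Bxb1-sfGFP-TEVs-SsrA fusion, so cleavage stabilises Bxb1 and speeds flipping of a recombination array, read by NGS. The value is the raw area under the fraction-flipped curve over 0-4 h after rhamnose induction (AUC4h), with ≥20 reads per time point. It is not background-subtracted; inactive controls average about 0.047.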
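Note: Bxb1 expression induced with 0.2% (w/v) L-rhamnose at OD600 near 0.5, cultures sampled hourly, flipped fraction per protease–substrate barcode pair counted by paired-end Illumina sequencing.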

Variant | area with substrate CNLYFQS | area with substrate GNLYFQS | area with substrate KNLYFQS | area with substrate LNLYFQS | area with substrate MNLYFQS | area with substrate NNLYFQS | area with substrate PNLYFQS | area with substrate TNLYFQS | area with substrate VNLYFQS | area with substrate WNLYFQS
L61Q | 0.0683 | 0.0912 | 0.079 | 0.0625 | 0.0719 | 0.0801 | 0.0763 | 0.0642 | 0.0655 | 0.0573
K100M | 0.0669 | 0.057 | 0.0755 |  | 0.0752 |  | 0.0716 | 0.0768 | 0.0608 | 0.0577
K100A | 0.0786 | 0.0606 |  |  |  |  |  | 0.0901 | 0.0829 | 0.0605
R106L | 0.103 |  |  | 0.118 |  |  |  | 0.0841 |  | 0.0646
R51G | 0.0647 |  |  |  |  | 0.0611 |  | 0.052 |  | 
T30V | 0.0663 |  |  | 0.0559 |  |  | 0.0622 |  | 0.0656 | 0.0615
D82I | 0.0529 |  | 0.044 |  |  | 0.0358 |  | 0.0511 |  | 0.055
E3I | 0.0955 | 0.0782 |  |  | 0.0712 |  |  | 0.0707 |  | 0.0586
K66T | 0.0636 | 0.0737 |  | 0.0709 | 0.0562 |  | 0.0631 |  |  | 0.0591
M83V | 0.0634 |  | 0.0066 |  |  | 0.0661 |  |  |  | 
M83Y | 0.0622 |  |  | 0.0534 | 0.0473 |  | 0.0667 | 0.0458 |  | 
T71D | 0.0463 |  | 0.0606 | 0.0395 |  |  | 0.0625 | 0.071 |  | 0.0537
T71Y | 0.072 |  | 0.0461 | 0.0547 |  | 0.0602 | 0.0558 | 0.075 |  | 0.0514
T71I | 0.0743 | 0.067 |  |  |  |  | 0.0575 |  |  | 
T71M | 0.0767 | 0.0689 | 0.0149 |  |  |  | 0.0763 |  |  | 0.0652
T71H | 0.0775 | 0.0498 | 0.055 |  | 0.0687 |  | 0.0643 | 0.0467 |  | 0.0492
K7E | 0.0529 |  |  |  |  |  |  | 0.0763 |  | 0.0629
K7P | 0.0562 | 0.0601 |  |  | 0.0589 | 0.075 |  | 0.0756 | 0.0393 | 
K7I | 0.0639 |  |  | 0.0576 | 0.0762 |  |  | 0.0606 | 0.0705 | 0.0606
T70V | 0.0559 | 0.0414 |  | 0.0573 | 0.0504 |  | 0.0711 | 0.063 |  | 0.0686
T70Y | 0.0552 | 0.0797 | 0.005 | 0.0638 | 0.0551 | 0.0657 | 0.0532 |  | 0.0608 | 

Variant | area with substrate CNLYFQS | area with substrate GNLYFQS | area with substrate KNLYFQS | area with substrate LNLYFQS | area with substrate MNLYFQS | area with substrate NNLYFQS | area with substrate PNLYFQS | area with substrate TNLYFQS | area with substrate VNLYFQS | area with substrate WNLYFQS
I84Q | 0.055 |  |  | 0.0542 | 0.0656 | 0.0559 | 0.0639 | 0.0646 |  | 0.0432
I84P | 0.0454 |  |  |  |  |  |  | 0.0504 |  | 
T115P | 0.0772 |  |  | 0.0658 |  |  |  | 0.112 |  | 0.0337
S121C | 0.0664 | 0.0512 |  |  | 0.0617 | 0.0671 | 0.0673 | 0.0719 | 0.0661 | 0.0352
P9H | 0.0673 |  |  |  |  |  | 0.0682 | 0.0643 |  | 
F117W | 0.0634 | 0.0804 |  |  |  |  | 0.0635 |  |  | 0.0718
F117D | 0.0714 | 0.0801 |  | 0.0801 |  |  | 0.0625 |  | 0.0743 | 0.0576
I110P | 0.0538 |  |  |  |  |  |  |  |  | 0.0575
M88K | 0.067 |  |  |  |  |  |  |  |  | 0.0456
H62C | 0.0691 |  | 0.0616 | 0.0755 | 0.0604 | 0.0629 | 0.0622 | 0.0749 | 0.0588 | 
F92R | 0.0576 |  |  |  |  |  |  |  |  | 
T119P | 0.0732 | 0.0597 | 0.0885 |  |  | 0.0607 |  | 0.081 | 0.0818 | 
L33C | 0.0477 |  | 0.0796 |  |  | 0.0697 | 0.0835 | 0.0598 |  | 0.0552
R50F | 0.0789 |  | 0.0694 | 0.0764 | 0.081 |  | 0.0953 | 0.079 |  | 0.0711
Q59T | 0.0747 |  |  |  | 0.073 |  |  | 0.0403 | 0.0686 | 0.0533
Q59A | 0.0647 |  | 0.0527 | 0.0627 |  | 0.0728 |  | 0.0671 |  | 0.0503
K90Y | 0.0849 |  | 0.0595 |  |  |  |  | 0.0635 |  | 0.0626
V67H | 0.0992 |  | 0.0675 |  | 0.055 |  |  | 0.0572 | 0.0771 | 0.0519
G35Q | 0.0632 |  |  | 0.0488 |  |  |  |  |  | 0.0437
G35N | 0.031 |  |  |  |  |  |  |  |  | 

Same assay, conditions: temperature: 34 °C; time window: 0-4 h after rhamnose induction

Variant | area with substrate FNLYFQS | area with substrate HNLYFQS | area with substrate INLYFQS | area with substrate YNLYFQS | area with substrate RNLYFQS | area with substrate SNLYFQS | area with substrate QNLYFQS
K100M | 0.0726 | 0.0956 | 0.066 |  |  |  | 
K100A | 0.0606 | 0.0718 | 0.0613 |  |  |  | 
R106L | 0.0739 | 0.0579 |  | 0.0552 |  |  | 
R51G |  | 0.0751 |  | 0.0564 | 0.0517 |  | 
T30V |  | 0.0698 |  | 0.0751 |  |  | 
D82I | 0.0599 | 0.0353 | 0.0578 |  |  |  | 
E3I | 0.0684 | 0.0546 |  | 0.0673 |  |  | 
K66T | 0.0864 | 0.0539 | 0.0663 |  | 0.0721 | 0.0634 | 
M83V | 0.0633 |  |  |  |  | 0.0671 | 
T71D |  | 0.0146 | 0.055 |  |  |  | 
T71Y | 0.0697 | 0.0566 |  |  |  |  | 
T71I | 0.0582 | 0.0331 |  | 0.0556 | 0.0507 |  | 
T71M |  | 0.0596 | 0.0702 |  |  |  | 
T71H |  | 0.0602 |  |  |  | 0.0557 | 0.0627
K7E |  |  |  |  | 0.0713 |  | 
K7P |  | 0.0656 | 0.0651 | 0.0648 |  | 0.0701 | 0.0659
K7I |  |  |  | 0.0743 |  |  | 
T70V | 0.0669 | 0.0521 |  | 0.0633 | 0.0607 | 0.0701 | 

Variant | area with substrate FNLYFQS | area with substrate HNLYFQS | area with substrate INLYFQS | area with substrate YNLYFQS | area with substrate RNLYFQS | area with substrate SNLYFQS | area with substrate QNLYFQS
T70Y | 0.0587 | 0.0504 |  | 0.0662 |  |  | 
I84Q |  | 0.0514 | 0.0555 |  |  | 0.0735 | 
T115P |  | 0.0568 | 0.0643 | 0.0439 |  |  | 
S121C | 0.0612 |  | 0.0853 | 0.0711 |  |  | 
P9H |  |  | 0.0618 | 0.0528 | 0.0559 |  | 
F117W |  |  | 0.0528 | 0.0515 |  |  | 0.0715
F117D | 0.0727 | 0.055 |  | 0.0706 |  | 0.0733 | 
I110P | 0.0558 | 0.0527 |  | 0.0631 |  | 0.0623 | 
H62C | 0.0537 | 0.0633 | 0.0564 | 0.0799 |  | 0.0609 | 0.0717
T119P | 0.0703 | 0.0623 | 0.0414 |  | 0.0637 | 0.0651 | 
L33C | 0.0619 | 0.0673 | 0.0764 | 0.0708 |  |  | 
R50F | 0.083 | 0.0822 | 0.0712 | 0.0649 |  | 0.0845 | 0.0898
Q59T |  | 0.0682 | 0.0714 | 0.0717 |  | 0.0555 | 
Q59A |  | 0.0376 |  |  |  | 0.0765 | 
K90Y |  |  |  | 0.0765 | 0.0482 |  | 0.0644
V67H | 0.0557 | 0.0638 |  |  | 0.0493 | 0.0527 | 0.0696
G35Q |  | 0.0144 |  | 0.0373 |  |  | 
G35N |  | 0.0337 |  |  | 0.0183 |  | 
